What all share (experiment): two-hybrid; GAL4 DNA-binding domain (pGBD) and GAL4 activation domain (pGAD) fusions co-transformed into PJ69-4α (also its rad51∆, rad55∆, csm2∆, shu1∆ and shu2∆ derivatives); growth on SC-L-W-H, 2-3 days, 30 °C
Test [1] has as its target T1, Rad57 (pGBD Rad57) (S. cerevisiae) (UniProt P25301).
T1 sequence: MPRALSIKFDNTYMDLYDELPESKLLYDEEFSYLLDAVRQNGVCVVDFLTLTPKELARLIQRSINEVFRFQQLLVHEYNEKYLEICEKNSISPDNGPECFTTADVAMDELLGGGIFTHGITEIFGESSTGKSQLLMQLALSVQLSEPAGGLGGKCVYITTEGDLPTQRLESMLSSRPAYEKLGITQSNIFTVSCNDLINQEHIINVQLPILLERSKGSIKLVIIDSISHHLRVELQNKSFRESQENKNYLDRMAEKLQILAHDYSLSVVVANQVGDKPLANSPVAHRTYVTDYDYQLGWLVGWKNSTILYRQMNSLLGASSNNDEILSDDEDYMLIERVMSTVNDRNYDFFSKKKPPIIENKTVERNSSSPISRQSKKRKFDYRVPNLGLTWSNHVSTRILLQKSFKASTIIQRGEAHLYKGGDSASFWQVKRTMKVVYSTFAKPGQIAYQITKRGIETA

Amino acid sequences for entries named in this document (tags omitted).
UniProt P53091: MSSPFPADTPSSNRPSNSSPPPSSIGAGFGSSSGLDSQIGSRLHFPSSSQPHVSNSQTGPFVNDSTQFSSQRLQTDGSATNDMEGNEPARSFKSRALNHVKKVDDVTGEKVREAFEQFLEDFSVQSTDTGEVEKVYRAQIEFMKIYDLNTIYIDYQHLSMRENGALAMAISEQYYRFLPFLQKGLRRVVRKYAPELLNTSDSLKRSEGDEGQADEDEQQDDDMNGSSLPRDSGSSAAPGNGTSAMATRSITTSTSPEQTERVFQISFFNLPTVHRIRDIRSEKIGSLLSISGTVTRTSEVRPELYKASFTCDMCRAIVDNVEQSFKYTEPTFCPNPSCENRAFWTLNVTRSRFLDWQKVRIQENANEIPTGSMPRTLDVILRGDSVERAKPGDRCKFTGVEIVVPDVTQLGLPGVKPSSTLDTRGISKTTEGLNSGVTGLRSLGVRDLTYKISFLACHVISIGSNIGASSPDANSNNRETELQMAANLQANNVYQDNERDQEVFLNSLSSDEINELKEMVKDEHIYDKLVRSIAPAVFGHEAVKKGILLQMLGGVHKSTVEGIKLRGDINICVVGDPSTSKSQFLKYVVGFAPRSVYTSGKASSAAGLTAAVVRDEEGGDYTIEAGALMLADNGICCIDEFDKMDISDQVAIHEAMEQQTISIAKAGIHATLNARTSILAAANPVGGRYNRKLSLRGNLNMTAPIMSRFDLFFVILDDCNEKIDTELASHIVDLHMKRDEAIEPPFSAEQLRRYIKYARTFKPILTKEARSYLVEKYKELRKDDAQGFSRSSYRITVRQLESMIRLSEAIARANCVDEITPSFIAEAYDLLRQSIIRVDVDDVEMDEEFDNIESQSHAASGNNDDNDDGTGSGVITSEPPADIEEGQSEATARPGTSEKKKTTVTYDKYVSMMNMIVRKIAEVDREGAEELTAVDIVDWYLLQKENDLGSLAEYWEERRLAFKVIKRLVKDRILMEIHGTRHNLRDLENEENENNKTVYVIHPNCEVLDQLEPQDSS
UniProt P24279: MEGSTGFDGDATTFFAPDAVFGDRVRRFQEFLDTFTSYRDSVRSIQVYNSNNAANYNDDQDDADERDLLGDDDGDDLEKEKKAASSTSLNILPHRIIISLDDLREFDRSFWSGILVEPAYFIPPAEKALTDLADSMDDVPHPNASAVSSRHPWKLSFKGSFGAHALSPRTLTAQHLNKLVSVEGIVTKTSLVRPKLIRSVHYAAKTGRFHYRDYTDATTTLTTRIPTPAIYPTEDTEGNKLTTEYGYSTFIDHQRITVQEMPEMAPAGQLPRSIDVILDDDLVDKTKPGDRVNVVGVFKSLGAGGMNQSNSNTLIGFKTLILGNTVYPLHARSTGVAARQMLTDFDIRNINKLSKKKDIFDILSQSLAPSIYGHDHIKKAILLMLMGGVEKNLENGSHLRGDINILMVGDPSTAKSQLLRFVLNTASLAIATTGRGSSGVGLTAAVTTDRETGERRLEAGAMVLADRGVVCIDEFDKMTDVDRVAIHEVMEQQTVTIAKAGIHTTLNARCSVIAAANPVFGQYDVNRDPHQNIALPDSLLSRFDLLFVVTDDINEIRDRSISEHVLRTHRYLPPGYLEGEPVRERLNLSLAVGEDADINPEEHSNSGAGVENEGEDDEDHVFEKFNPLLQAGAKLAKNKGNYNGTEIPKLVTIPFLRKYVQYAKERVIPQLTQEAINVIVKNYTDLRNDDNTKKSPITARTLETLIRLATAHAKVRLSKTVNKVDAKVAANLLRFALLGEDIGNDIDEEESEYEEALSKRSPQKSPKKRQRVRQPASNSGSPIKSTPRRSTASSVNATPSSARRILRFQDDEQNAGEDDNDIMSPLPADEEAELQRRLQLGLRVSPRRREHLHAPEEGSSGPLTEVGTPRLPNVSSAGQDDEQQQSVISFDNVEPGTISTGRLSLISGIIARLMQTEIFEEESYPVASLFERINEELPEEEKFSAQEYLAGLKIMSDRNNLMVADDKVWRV

In test [2] the target is T2, Psy3 (pGBD Psy3) (S. cerevisiae) (UniProt Q12318).
T2 sequence: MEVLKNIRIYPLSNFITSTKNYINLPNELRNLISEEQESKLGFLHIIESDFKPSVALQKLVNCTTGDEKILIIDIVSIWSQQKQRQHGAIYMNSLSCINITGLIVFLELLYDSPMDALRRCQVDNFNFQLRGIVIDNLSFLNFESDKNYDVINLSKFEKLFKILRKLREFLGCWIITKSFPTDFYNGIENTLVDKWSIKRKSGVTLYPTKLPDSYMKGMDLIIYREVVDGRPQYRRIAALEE

The target in test [3] is T3, Rad55 (pGBD Rad55) (S. cerevisiae) (UniProt P38953).
T3 sequence: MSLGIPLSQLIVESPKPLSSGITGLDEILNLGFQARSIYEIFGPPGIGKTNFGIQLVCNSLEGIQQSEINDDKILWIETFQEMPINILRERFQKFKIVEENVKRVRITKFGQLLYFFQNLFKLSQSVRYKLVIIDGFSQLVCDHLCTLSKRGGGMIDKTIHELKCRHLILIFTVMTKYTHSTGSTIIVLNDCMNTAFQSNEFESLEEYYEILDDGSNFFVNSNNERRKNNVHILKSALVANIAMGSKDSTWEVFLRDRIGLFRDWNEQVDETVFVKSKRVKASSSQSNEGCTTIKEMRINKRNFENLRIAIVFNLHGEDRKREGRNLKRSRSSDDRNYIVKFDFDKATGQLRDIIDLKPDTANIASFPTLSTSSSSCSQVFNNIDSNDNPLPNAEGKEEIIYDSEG

Test [4] concerns the target T4, Psy3-S18A (pGBD psy3-S18A) (S. cerevisiae) (UniProt Q12318).
T4 sequence: T2 sequence with S18A

Test [5] deals with T5, Psy3-F15A (pGBD psy3-F15A) (S. cerevisiae) (UniProt Q12318).
T5 sequence: T2 sequence with F15A

Test [6] has as its target T2, Psy3 (pGBD Psy3) (S. cerevisiae). The source holds these as a separate data set.
For test [7], the target named is T6, Psy3-L12A (pGBD psy3-L12A) (S. cerevisiae) (UniProt Q12318).
T6 sequence: T2 sequence with L12A

In test [8] the target is T7, Psy3-Y10A (pGBD psy3-Y10A) (S. cerevisiae) (UniProt Q12318).
T7 sequence: T2 sequence with Y10A

Test [9] concerns the target T8, Mcm10 (pGBD Mcm10) (S. cerevisiae) (UniProt P32354).
T8 sequence: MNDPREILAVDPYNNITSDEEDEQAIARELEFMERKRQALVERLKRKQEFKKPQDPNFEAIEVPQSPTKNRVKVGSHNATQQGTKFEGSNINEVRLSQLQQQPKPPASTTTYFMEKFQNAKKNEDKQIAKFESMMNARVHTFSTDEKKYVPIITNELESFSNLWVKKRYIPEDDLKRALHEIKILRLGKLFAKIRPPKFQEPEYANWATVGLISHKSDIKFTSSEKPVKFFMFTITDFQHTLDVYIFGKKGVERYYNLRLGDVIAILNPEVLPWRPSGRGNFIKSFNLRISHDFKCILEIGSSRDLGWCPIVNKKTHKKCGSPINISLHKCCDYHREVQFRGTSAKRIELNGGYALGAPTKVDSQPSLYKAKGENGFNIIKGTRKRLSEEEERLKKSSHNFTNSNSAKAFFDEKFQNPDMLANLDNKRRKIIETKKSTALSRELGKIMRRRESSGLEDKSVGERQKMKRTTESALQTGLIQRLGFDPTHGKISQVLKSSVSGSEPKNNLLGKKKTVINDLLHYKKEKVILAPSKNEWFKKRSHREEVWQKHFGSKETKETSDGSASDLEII

For test [10], the target named is T9, Psy3-T17A (pGBD psy3-T17A) (S. cerevisiae) (UniProt Q12318).
T9 sequence: T2 sequence with T17A

Test [11] has as its target T10, Shu2 (pGBD Shu2) (S. cerevisiae) (UniProt P38957).
T10 sequence: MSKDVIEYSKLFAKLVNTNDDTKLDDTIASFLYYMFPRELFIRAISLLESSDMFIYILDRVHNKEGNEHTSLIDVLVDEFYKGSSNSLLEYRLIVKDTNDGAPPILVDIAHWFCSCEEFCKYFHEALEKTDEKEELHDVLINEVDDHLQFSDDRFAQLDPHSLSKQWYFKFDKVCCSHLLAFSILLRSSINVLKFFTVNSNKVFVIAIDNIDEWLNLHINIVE

Test [12] addresses T11, Csm2 (pGBD Csm2) (S. cerevisiae) (UniProt P40465).
T11 sequence: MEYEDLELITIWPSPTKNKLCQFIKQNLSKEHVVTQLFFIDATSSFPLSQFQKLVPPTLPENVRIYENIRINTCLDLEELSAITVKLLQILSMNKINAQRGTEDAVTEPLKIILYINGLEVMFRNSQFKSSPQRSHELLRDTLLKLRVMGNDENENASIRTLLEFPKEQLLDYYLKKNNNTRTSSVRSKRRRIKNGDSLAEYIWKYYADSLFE

Numbering of substitutions follows the chain as printed. Like-named read-outs stand apart in the source and are kept apart here. Results are given in words; binding and its absence hold for the method and conditions named. Some results given as binding are weak or reduced against the parent protein; the word gives no strength.

“Mcm6 (pGAD Mcm6) (from UniProt P53091 1-1017)”: the results for the binding result in test [1], in [2] and in test [3] were “no binding”, “binds” and “no binding”, respectively.

Consider “Mcm3 (pGAD Mcm3) (from UniProt P24279 1-971)”, for which the binding entry in [1] was “no binding”; in test [2], “binds”; in test [3], “no binding”.

B1: Shu1 (pGAD Shu1) (protein, UniProt P38751 1-150)
chain: MQFEERLQQLVESDWSLDQSSPNVLVIVLGDTARKYVELGGLKEHVTTNTVAGHVASRERVSVVFLGRVKYLYMYLTRMQAQANGPQYSNVLVYGLWDLTATQDGPQQLRLLSLVLRQCLSLPSKVEFYPEPPSSSVPARLLRFWDHIIR
As for B1, the binding result is listed as “binds” in [4]; “binds” in [5]; “binds” in test [6]; “binds” in test [7]; “binds” in test [8]; “no binding” in test [9]. Besides, the binding result in [10] was “binds”.

B2: Cdc45 (pGAD CDC45) (protein, UniProt Q08032 1-650)
chain: MYYGISQFSEAYNKILRNSSSHSSCQLVIFVSCLNIDALCATKMLSLLFKKQLVQSQIVPIFGYSELRRHYSQLDDNINSLLLVGFGGVIDLEAFLEIDPQEYVIDTDEKSGEQSFRRDIYVLDAHRPWNLDNIFGSQIIQCFDDGTVDDTLGEQKEAYYKLLELDEESGDDELSGDENDNNGGDDEATDADEVTDEDEEDEDETISNKRGNSSIGPNDLSKRKQRKKQIHEYEGVLEEYYSQGTTVVNSISAQIYSLLSAIGETNLSNLWLNILGTTSLDIAYAQVYNRLYPLLQDEVKRLTPSSRNSVKTPDTLTLNIQPDYYLFLLRHSSLYDSFYYSNYVNAKLSLWNENGKKRLHKMFARMGIPLSTAQETWLYMDHSIKRELGIIFDKNLDRYGLQDIIRDGFVRTLGYRGSISASEFVEALTALLEVGNSTDKDSVKINNDNNDDTDGEEEEDNSAQKLTNLRKRWVSNFWLSWDALDDRKVELLNRGIQLAQDLQRAIFNTGVAILEKKLIKHLRIYRLCVLQDGPDLDLYRNPLTLLRLGNWLIECCAESEDKQLLPMVLASIDENTDTYLVAGLTPRYPRGLDTIHTKKPILNNFSMAFQQITAETDAKVRIDNFESSIIEIRREDLSPFLEKLTLSGLL
Turning to B2, the binding result in test [6], in test [11] and in [12] was “binds” in each case.

The values are drawn from PMC11876325.
